Results: patent US20240209028A1, “CNP COMPOUNDS” (priority 2022, published 2024)
The name of at least one read-out is uncertain. Starred links: 1 amine or outer side, 2 acyl side, 3 side chain; linkers in the order of their positions; H or OH if unused. Positions of bridges follow the written chain, without caps; N, C: chain ends. Residues, ends and D or L forms follow the SMILES beside them. *: point of attachment. C18 diacid = O=C(O)CCCCCCCCCCCCCCCCC(=O)*; γGlu = O=C(O)[C@H](CCC(=O)[*:2])N[*:1]; X1 = O=C(CCCCCCCCCCCCCCCCc1nnn[nH]1)*; AEEA = NCCOCCOCC(=O)O

Experiment: Thioflavin T (ThT) assay: lagtime and peptide recovery
Type: physicochemical
Conditions: ThT assay, pH 6.5, after 45h incubation
Source text: The ThT assay was used to evaluate physical stability of the CNP compounds and their suitability for liquid formulation. Low physical stability of peptides may lead to amyloid fibril formation, which is observed as well-ordered, thread-like macromolecular structures in the sample eventually resulting in gel formation. This has traditionally been tested by visual inspection of the sample. However, that kind of measurement is very subjective and depending on the observer. Therefore, the application of a small molecule indicator probe is much more advantageous. Thioflavin T (ThT) is such a probe and has a distinct fluorescence signature when binding to fibrils [Naiki et al. (1989) Anal. Biochem. 177, 244-249; LeVine (1999) Methods. Enzymol. […], 274-284].
Procedure: Thioflavin T was added to the supernatant samples from Example 5 (pH 4.0 and 6.5) using an aqueous ThT stock solution to a final concentration of about 1 μM in the samples. Sample aliquots of 150 μL were placed in a 96 well microtiter plate (Packard OptiPlate™-96, white polystyrene). Usually, two to three replicas of each sample were applied to the plate. The plate was sealed and placed in a fluorescence plate reader (Fluoroskan Ascent FL) and incubated at 37° C. with orbital shaking (960 rpm; 1 mm amplitude). Fluorescence measurements were performed every 20 minutes using excitation through a 444 nm filter and measurement of emission through a 485 nm filter. Between each measurement, the plate was shaken and heated as described above and the assay was terminated after 45 hours. Fluorescence measurements for each microtiter plate well were plotted against time and the lag-time (time until an increase in ThT fluorescence was observed) was estimated.
To assess loss of dissolved peptide following 45h incubation, peptide recovery was measured as the ratio between total peak area after incubation vs. before incubation using the RP-UPLC method described below.
Measurement of LagTime and Peptide recovery % using RP-UPLC: RP-UPLC was conducted using an Acquity UPLC BEH C18 1.7 μm (2.1×30 mm) Waters column (Eluent A: 0.1% v/v % TFA in water; Eluent B: 0.1% v/v TFA in acetonitrile/water 4:1) with gradient elution (0 min: 95% A; 2 min: 20% A; 2.3 min: 20% A; 2.4 min: 95% A; 9 min: 95% A) in a flow rate of 0.9 mL/min and a column temperature of 30° C. UV-detection at 215 nm was used to assess the total peptide area.
Samples at pH 4.0 were prepared as described in Example 5 and subjected to the ThT assay as described above.
Samples at pH 6.5 were prepared as described in Example 5 and subjected to the ThT assay as described above.

| Structure (SMILES) | Peptide Recovery (%) at pH 6.5 |
| --- | --- |
| CC[C@H](C)[C@@H]1NC(=O)[C@H](CCCNC(=N)N)NC(=O)[C@H](CC(=O)O)NC(=O)[C@H](CC(C)C)NC(=O)[C@@H]2CCCN2C(=O)[C@H](CC(C)C)NC(=O)CNC(=O)[C@H](Cc2ccccc2)NC(=O)[C@@H](NC(=O)CNC(=O)[C@H](CCC(N)=O)NC(=O)[C@H](CO)NC(=O)[C@H](CC(C)C)NC(=O)CNC(=O)[C@H](CCCCN)NC(=O)[C@H](CCCCN)NC(=O)[C@H](CCC(N)=O)NC(=O)[C@H](C)NC(=O)CNC(=O)[C@H](CCCCN)NC(=O)[C@H](Cc2ccc(O)cc2)NC(=O)[C@H](CCCCN)NC(=O)[C@H](CCCNC(=N)N)NC(=O)[C@H](C)NC(=O)[C@H](CCC(N)=O)NC(=O)[C@@H]2CCCN2C(=O)[C@H](Cc2c[nH]cn2)NC(=O)[C@H](CCC(=O)O)NC(=O)[C@H](CCC(N)=O)NC(=O)COCCOCCNC(=O)COCCOCCNC(=O)CC[C@H](NC(=O)CC[C@H](NC(=O)CC[C@H](NC(=O)CC[C@H](NC(=O)CC[C@H](NC(=O)CC[C@H](NC(=O)CCCCCCCCCCCCCCCCC(=O)O)C(=O)O)C(=O)O)C(=O)O)C(=O)O)C(=O)O)C(=O)O)CSSC[C@@H](C(=O)O)NC(=O)CNC(=O)[C@H](CC(C)C)NC(=O)CNC(=O)[C@H](CO)NC(=O)[C@H](CC(C)C)NC(=O)[C@H](CO)NC(=O)CNC1=O [compound 1402] ({C18 diacid-γGlu-γGlu-γGlu-γGlu-γGlu-γGlu-AEEA-AEEA}-QEHPQARKYKGAQKKGLSQGCFGLPLDRIGSLSGLGC-OH; disulfide 21-37) | 123% |
| CC[C@H](C)[C@@H]1NC(=O)[C@H](CCCNC(=N)N)NC(=O)[C@H](CC(=O)O)NC(=O)[C@H](CC(C)C)NC(=O)[C@@H]2CCCN2C(=O)[C@H](CC(C)C)NC(=O)CNC(=O)[C@H](Cc2ccccc2)NC(=O)[C@@H](NC(=O)CNC(=O)[C@H](CCC(N)=O)NC(=O)[C@H](CO)NC(=O)[C@H](CC(C)C)NC(=O)CNC(=O)[C@H](CCCCN)NC(=O)[C@H](CCCCN)NC(=O)[C@H](CCC(N)=O)NC(=O)[C@H](C)NC(=O)CNC(=O)[C@H](CCCCN)NC(=O)[C@H](Cc2ccc(O)cc2)NC(=O)[C@H](CCCCN)NC(=O)[C@H](CCCNC(=N)N)NC(=O)[C@H](C)NC(=O)[C@H](CCC(N)=O)NC(=O)[C@@H]2CCCN2C(=O)[C@H](Cc2c[nH]cn2)NC(=O)[C@H](CCC(=O)O)NC(=O)[C@H](CCC(N)=O)NC(=O)COCCOCCNC(=O)COCCOCCNC(=O)COCCOCCNC(=O)COCCOCCNC(=O)CC[C@H](NC(=O)CC[C@H](NC(=O)CC[C@H](NC(=O)CC[C@H](NC(=O)CC[C@H](NC(=O)CC[C@H](NC(=O)CCCCCCCCCCCCCCCCC(=O)O)C(=O)O)C(=O)O)C(=O)O)C(=O)O)C(=O)O)C(=O)O)CSSC[C@@H](C(=O)O)NC(=O)CNC(=O)[C@H](CC(C)C)NC(=O)CNC(=O)[C@H](CO)NC(=O)[C@H](CC(C)C)NC(=O)[C@H](CO)NC(=O)CNC1=O [compound 1404] ({C18 diacid-γGlu-γGlu-γGlu-γGlu-γGlu-γGlu-AEEA-AEEA-AEEA-AEEA}-QEHPQARKYKGAQKKGLSQGCFGLPLDRIGSLSGLGC-OH; disulfide 21-37) | 148% |
| CC[C@H](C)[C@@H]1NC(=O)[C@H](CCCNC(=N)N)NC(=O)[C@H](CC(=O)O)NC(=O)[C@H](CC(C)C)NC(=O)[C@@H]2CCCN2C(=O)[C@H](CC(C)C)NC(=O)CNC(=O)[C@H](Cc2ccccc2)NC(=O)[C@@H](NC(=O)CNC(=O)[C@H](CCC(N)=O)NC(=O)[C@H](CO)NC(=O)[C@H](CC(C)C)NC(=O)CNC(=O)[C@H](CCCCN)NC(=O)[C@H](CCCCN)NC(=O)[C@H](CCC(N)=O)NC(=O)[C@H](C)NC(=O)CNC(=O)[C@H](CCCCN)NC(=O)[C@H](Cc2ccc(O)cc2)NC(=O)[C@H](CCCCN)NC(=O)[C@H](CCCNC(=N)N)NC(=O)[C@H](C)NC(=O)[C@H](CCC(N)=O)NC(=O)[C@@H]2CCCN2C(=O)[C@H](Cc2c[nH]cn2)NC(=O)[C@H](CCC(=O)O)NC(=O)[C@H](CCC(N)=O)NC(=O)COCCOCCNC(=O)COCCOCCNC(=O)COCCOCCNC(=O)COCCOCCNC(=O)CC[C@H](NC(=O)CC[C@H](NC(=O)CC[C@H](NC(=O)CC[C@H](NC(=O)CC[C@H](NC(=O)CCCCCCCCCCCCCCCCC(=O)O)C(=O)O)C(=O)O)C(=O)O)C(=O)O)C(=O)O)CSSC[C@@H](C(=O)O)NC(=O)CNC(=O)[C@H](CC(C)C)NC(=O)CNC(=O)[C@H](CO)NC(=O)[C@H](CC(C)C)NC(=O)[C@H](CO)NC(=O)CNC1=O [compound 1406] ({C18 diacid-γGlu-γGlu-γGlu-γGlu-γGlu-AEEA-AEEA-AEEA-AEEA}-QEHPQARKYKGAQKKGLSQGCFGLPLDRIGSLSGLGC-OH; disulfide 21-37) | 120% |
| CC[C@H](C)[C@@H]1NC(=O)[C@H](CCCNC(=N)N)NC(=O)[C@H](CC(=O)O)NC(=O)[C@H](CC(C)C)NC(=O)[C@@H]2CCCN2C(=O)[C@H](CC(C)C)NC(=O)CNC(=O)[C@H](Cc2ccccc2)NC(=O)[C@@H](NC(=O)CNC(=O)[C@H](CCC(N)=O)NC(=O)[C@H](CO)NC(=O)CNC(=O)CNC(=O)[C@H](CCCCN)NC(=O)[C@H](Cc2c[nH]cn2)NC(=O)[C@H](CCC(N)=O)NC(=O)[C@H](C)NC(=O)CNC(=O)[C@H](CCC(=O)O)NC(=O)[C@H](Cc2ccc(O)cc2)NC(=O)[C@H](CCCCN)NC(=O)[C@H](CCCNC(=N)N)NC(=O)[C@H](C)NC(=O)COCCOCCNC(=O)COCCOCCNC(=O)COCCOCCNC(=O)COCCOCCNC(=O)CC[C@H](NC(=O)CC[C@H](NC(=O)CCCCCCCCCCCCCCCCC(=O)O)C(=O)O)C(=O)O)CSSC[C@@H](C(=O)O)NC(=O)CNC(=O)[C@H](CC(C)C)NC(=O)CNC(=O)[C@H](CO)NC(=O)[C@H](CC(C)C)NC(=O)[C@H](CO)NC(=O)CNC1=O [compound 1432] ({C18 diacid-γGlu-γGlu-AEEA-AEEA-AEEA-AEEA}-ARKYEGAQHKGGSQGCFGLPLDRIGSLSGLGC-OH; disulfide 16-32) | 188% |

Same assay, conditions: after 45 h ThT incubation vs before, RP-UPLC

| Structure (SMILES) | Peptide Recovery (%) at pH 4.0 |
| --- | --- |
| CC[C@H](C)[C@@H]1NC(=O)[C@H](CCCNC(=N)N)NC(=O)[C@H](CC(=O)O)NC(=O)[C@H](CC(C)C)NC(=O)[C@@H]2CCCN2C(=O)[C@H](CC(C)C)NC(=O)CNC(=O)[C@H](Cc2ccccc2)NC(=O)[C@@H](NC(=O)CNC(=O)[C@H](CO)NC(=O)[C@H](CO)NC(=O)[C@@H](NC(=O)CNC(=O)[C@H](CCCCN)NC(=O)[C@H](CCCCN)NC(=O)[C@H](CCC(N)=O)NC(=O)[C@H](C)NC(=O)CNC(=O)[C@H](Cc2c[nH]cn2)NC(=O)[C@H](Cc2ccc(O)cc2)NC(=O)[C@H](CCCCN)NC(=O)[C@H](CCCNC(=N)N)NC(=O)[C@H](C)NC(=O)COCCOCCNC(=O)COCCOCCNC(=O)CC[C@H](NC(=O)CC[C@H](NC(=O)CC[C@H](NC(=O)CCCCCCCCCCCCCCCCC(=O)O)C(=O)O)C(=O)O)C(=O)O)C(C)C)CSSC[C@@H](C(=O)O)NC(=O)CNC(=O)[C@H](CC(C)C)NC(=O)CNC(=O)[C@H](CO)NC(=O)[C@H](CC(C)C)NC(=O)[C@H](CO)NC(=O)CNC1=O [compound 1422] ({C18 diacid-γGlu-γGlu-γGlu-AEEA-AEEA}-ARKYHGAQKKGVSSGCFGLPLDRIGSLSGLGC-OH; disulfide 16-32) | 99% |
| CC[C@H](C)[C@@H]1NC(=O)[C@H](CCCNC(=N)N)NC(=O)[C@H](CC(=O)O)NC(=O)[C@H](CC(C)C)NC(=O)[C@@H]2CCCN2C(=O)[C@H](CC(C)C)NC(=O)CNC(=O)[C@H](Cc2ccccc2)NC(=O)[C@@H](NC(=O)CNC(=O)[C@H](CCC(N)=O)NC(=O)[C@H](CO)NC(=O)[C@H](CC(C)C)NC(=O)CNC(=O)[C@H](CO)NC(=O)[C@H](CCCCN)NC(=O)[C@H](CCC(N)=O)NC(=O)[C@H](C)NC(=O)CNC(=O)[C@H](Cc2c[nH]cn2)NC(=O)[C@H](Cc2ccc(O)cc2)NC(=O)[C@H](CCCCN)NC(=O)[C@H](CCCNC(=N)N)NC(=O)[C@H](C)NC(=O)COCCOCCNC(=O)COCCOCCNC(=O)CC[C@H](NC(=O)CC[C@H](NC(=O)CCCCCCCCCCCCCCCCc2nnn[nH]2)C(=O)O)C(=O)O)CSSC[C@@H](C(=O)O)NC(=O)CNC(=O)[C@H](CC(C)C)NC(=O)CNC(=O)[C@H](CO)NC(=O)[C@H](CC(C)C)NC(=O)[C@H](CO)NC(=O)CNC1=O [compound 1426] ({X1-γGlu-γGlu-AEEA-AEEA}-ARKYHGAQKSGLSQGCFGLPLDRIGSLSGLGC-OH; disulfide 16-32) | 0% |
